Data on 78 compounds can be found in the supplement of paper PMC10670038.

Structures can show the parent of a compound that is named as a salt. ± gives the standard deviation of the averaged measurements. In all, about 2,000 compounds were measured (“relative cell viability vs DMSO, compound + 0.2 uM CuET”: median about 1, lowest 2% from about 0.25 on). Some of the results follow.

The subject of this assay is TE10. Briefly: relative cell viability vs DMSO, compound + 0.2 uM CuET (fraction); TE10 is an esophageal squamous carcinoma line; higher = less cytotoxic. Conditions: 2 µM; co-treatment: CuET (bis(diethyldithiocarbamate)copper) 0.2 uM; 48 h. On the procedure:
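TE10 ESCC cells (1,000/well, 384-well plates) were treated with Selleck bioactive library compounds at 2 uM combined with 0.2 uM CuET (copper diethyldithiocarbamate) for 48 h. Viability was read by CellTiter-Glo and expressed relative to DMSO wells. Two technical replicates (A, B).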
Consider `O=C(CCCN1CCN(c2ccccn2)CC1)c1ccc(F)cc1` [Azaperone], for which the relative cell viability was found to be 1.245 ± 0.0024. With `C[C@H](CCC(=O)O)[C@H]1CC[C@H]2[C@@H]3[C@@H](O)C[C@@H]4C[C@H](O)CC[C@]4(C)[C@H]3CC[C@]12C` [Ursodiol] the figure was 1.07 ± 0.063; with `C[C@@H](O[C@H]1OCCN(Cc2nn(P(=O)(O)O)c(=O)[nH]2)[C@H]1c1ccc(F)cc1)c1cc(C(F)(F)F)cc(C(F)(F)F)c1` [Fosaprepitant dimeglumine salt], 1.056 ± 0.0094. As to `CCC(C)(Oc1ccc(C2(c3ccc(OC(C)(CC)C(=O)O)cc3)CCCCC2)cc1)C(=O)O` (stereo not drawn) [Clinofibrate], the relative cell viability stood at 1.11 ± 0.074.

Take `CNc1cc(-c2cccc(Cl)c2Cl)nc(N)n1`: the relative cell viability worked out at 0.84 ± 0.04. In the case of `COc1cc2nccc(Oc3ccc(NC(=O)NC4CC4)c(Cl)c3)c2cc1C(N)=O` [Lenvatinib (E7080)], the relative cell viability came to 1.55 ± 0.36. With `CN1CCc2c(c3ccccc3n2Cc2ccc(C(=O)NO)cc2)C1` [Tubastatin A] the figure was 1.375 ± 0.0024; with `CN1CCc2c(c3ccccc3n2Cc2ccc(C(=O)NO)cc2)C1` [Tubastatin A HCl], 0.979 ± 0.011. Take `C=CC(C)(C)c1cc(C=CC(=O)c2ccc(O)cc2)c(OC)cc1O` [Licochalcone A]: the relative cell viability was 1.008 ± 0.0053. With `CC[C@@H]1C(=O)OC[C@@H]1Cc1cncn1C` [Pilocarpine HCl] the figure was 1.21 ± 0.12; with `CN(C)C(=O)c1ccc(S(=O)(=O)c2ccc(NC(=O)C(C)(O)C(F)(F)F)c(Cl)c2)cc1` (stereo not drawn), 1.2 ± 0.14.

Consider `CC(C)(CO)c1cc2cc(NC(=O)C3(c4ccc5c(c4)OC(F)(F)O5)CC3)c(F)cc2n1C[C@@H](O)CO`, for which the relative cell viability was 1.19 ± 0.028. With `Cc1c(CN2CCN(C(=O)[C@H](C)O)CC2)sc2c(N3CCOCC3)nc(-c3cnc(N)nc3)nc12` the figure was 0.495 ± 0.091; with `Cc1cnc(-c2cc(N3CCN(C(=O)CCS(C)(=O)=O)CC3)ncc2Cl)c(C)c1`, 1.14 ± 0.09; with `N#CCNC(=O)c1ccc(-c2ccnc(Nc3ccc(N4CCOCC4)cc3)n2)cc1`, 1.13 ± 0.15. Then `OCc1c[nH]c2ccccc12` [Indole-3-carbinol], with 1.1 ± 0.11; and `O=C(/C=C/c1ccc(O)cc1)c1ccc(O)cc1O` [Isoliquiritigenin], with 0.776 ± 0.037; and `N#Cc1ccc(-c2csc(NN=C3CCCC3)n2)cc1` [Remodelin], with 1.04 ± 0.028. With `CS(=O)(=O)OCCCCOS(C)(=O)=O` [Busulfan] the figure was 0.973 ± 0.14; with `Cc1ncc(-c2ccnc(Nc3ccc(S(C)(=O)=O)cc3)n2)n1C(C)C`, 0.949 ± 0.042. Consider `CC(=O)NS(=O)(=O)c1ccc(N)cc1` [Sulfacetamide Sodium], for which the relative cell viability came to 0.969 ± 0.09. Then `Cc1cn([C@H]2C=C[C@@H](CO)O2)c(=O)[nH]c1=O` [Stavudine (d4T)], with 1.41 ± 0.16. With `C=C1CC[C@@H]2[C@](C)(CO)[C@H](O)CC[C@@]2(C)[C@@H]1C/C=C1/C(=O)OC[C@H]1O` [Andrographolide] the figure was 0.923 ± 0.02; with `OCc1ccccc1O[C@@H]1O[C@H](CO)[C@@H](O)[C@H](O)[C@H]1O` [Salicin], 1.18 ± 0.029; with `CN1C(CCl)Nc2cc(Cl)c(S(N)(=O)=O)cc2S1(=O)=O` (stereo not drawn) [Methyclothiazide], 1.15 ± 0.059. Then `NCCCC[C@@H]1NC(=O)[C@@H](Cc2ccc(O)cc2)NC(=O)[C@H](CC(=O)O)NC(=O)CNC(=O)[C@H](CCCN=C(N)N)NC1=O` [Cyclo(RGDyK)], with 1.19 ± 0.27; and `CNC(=O)c1ccccc1Nc1cc(Nc2ccc(N3CCOCC3)cc2OC)ncc1C(F)(F)F`, with 0.955 ± 0.1; and `CNC(=O)c1cc(Oc2ccc(NC(=O)Nc3ccc(Cl)c(C(F)(F)F)c3)cc2)ccn1` [Sorafenib], with 1.09 ± 0.05. Consider `CNC(=O)c1cc(Oc2ccc(NC(=O)Nc3ccc(Cl)c(C(F)(F)F)c3)cc2)ccn1` [Sorafenib Tosylate], for which the relative cell viability is 1.18 ± 0.095. With `COc1cccc2c1C(=O)c1c(O)c3c(c(O)c1C2=O)C[C@@](O)(C(C)=O)C[C@@H]3O[C@H]1C[C@H](N)[C@H](O)[C@H](C)O1` [Daunorubicin HCl] the figure was 1 ± 0.077; with `Cc1ccc(S(=O)(=O)Cc2nc(-c3ccc(C(=O)NCc4cccnc4)cc3)oc2C)cc1`, 0.987 ± 0.007.

Take `CC/C(=C(\c1ccc(O)cc1)c1ccc(OCCNC)cc1)c1ccccc1` [Endoxifen HCl]: the relative cell viability was determined as 1.02 ± 0.02. With `CN(c1ccccc1CNc1nc(Nc2ccc3c(c2)CC(=O)N3)ncc1C(F)(F)F)S(C)(=O)=O` the figure was 0.709 ± 0.029. `CC(=O)OCC(=O)[C@@]12OC(C)(C)O[C@@H]1C[C@H]1[C@@H]3C[C@H](F)C4=CC(=O)C=C[C@]4(C)[C@@]3(F)[C@@H](O)C[C@@]12C` [Fluocinonide]: the relative cell viability was 1.09 ± 0.097. Then `c1ccc2c(CC3=NCCN3)cccc2c1` [Naphazoline HCl], with 1.2 ± 0.024. With `CC(C=CC(=O)NO)=CC(C)C(=O)c1ccc(N(C)C)cc1` (stereo not drawn) [Trichostatin A (TSA)], the relative cell viability is 0.177 ± 0.0076. As for `CCN(CC)CC(=O)Nc1c(C)cccc1C` [Lidocaine], the relative cell viability came to 1.18 ± 0.015. Then `O=C(O)c1cc(=O)[nH]c(=O)[nH]1` [Orotic acid (6-Carboxyuracil)], with 1.13 ± 0.022; and `Cc1ccccc1C(C(=O)NC1CCCCC1)N(C(=O)Cn1ccnc1C)c1cccc(F)c1` (stereo not drawn), with 1.09 ± 0.083; and `CC1(C)S[C@@H]2[C@H](NC(=O)[C@H](N)c3ccccc3)C(=O)N2[C@H]1C(=O)O` [Ampicillin sodium], with 1.19 ± 0.13. Then `CC1(C)S[C@@H]2[C@H](NC(=O)[C@H](N)c3ccccc3)C(=O)N2[C@H]1C(=O)O` [Ampicillin Trihydrate], with 1.23 ± 0.043. With `C=C[C@H]1CN2CC[C@H]1C[C@H]2[C@H](O)c1ccnc2ccc(OC)cc12` [Quinine HCl Dihydrate] the figure was 1.05 ± 0.092. As for `Cc1ccc(-n2nc(C(C)(C)C)cc2NC(=O)NCc2cc(F)ccc2Oc2ccc3c(cnn3CCO)c2)cc1` [Pexmetinib (ARRY-614)], the relative cell viability was 1.16 ± 0.074.

With `Cc1ccc(C(=O)Nc2ccc(CN3CCN(C)CC3)c(C(F)(F)F)c2)cc1C#Cc1cnc2[nH]ncc2c1`, the relative cell viability turned out to be 0.5899 ± 0.0034. With `Oc1ccc(-c2nc(-c3ccc(F)cc3)c(-c3ccncc3)[nH]2)cc1`, the relative cell viability was 1.18 ± 0.081. With `OCCn1cc(-c2cnc3nnn(Cc4ccc5ncccc5c4)c3n2)cn1` the figure was 1.23 ± 0.15. With `Cc1ncc([N+](=O)[O-])n1CC(C)O` (stereo not drawn) [Secnidazole] the figure was 1.04 ± 0.069.

`COc1ccc2cc([C@H](C)C(=O)O)ccc2c1` [Naproxen]: the relative cell viability worked out at 1.11 ± 0.12. Then `C[C@]12CCC(=O)C=C1[C@@H]1C[C@@H]1[C@H]1[C@@H]3[C@@H]4C[C@@H]4[C@@]4(CCC(=O)O4)[C@@]3(C)CC[C@@H]12` [Drospirenone], with 0.77 ± 0.4; and `COc1cccc2c1C(=O)c1c(O)c3c(c(O)c1C2=O)C[C@@](O)(C(=O)CO)C[C@@H]3O[C@H]1C[C@H](N)[C@@H](O)[C@H](C)O1` [Epirubicin HCl], with 0.903 ± 0.067; and `CCCN(CCC)CCc1cccc2c1CC(=O)N2` [Ropinirole HCl], with 0.62 ± 0.76. With `CN(C(Cc1ccc(OS(=O)(=O)c2cccc3cnccc23)cc1)C(=O)N1CCN(c2ccccc2)CC1)S(=O)(=O)c1cccc2cnccc12` (stereo not drawn) the figure was 0.992 ± 0.046; with `CN1CCC(Nc2nc(Nc3ccc(Oc4ccccc4)cc3)c3c(=O)[nH]cc(Br)c3n2)CC1`, 0.658 ± 0.12. Then `CC(=O)O[C@H]1C(=O)[C@@]2(C)[C@H]([C@H](OC(=O)c3ccccc3)[C@]3(O)C[C@H](OC(=O)[C@H](O)[C@@H](NC(=O)c4ccccc4)c4ccccc4)C(C)=C1C3(C)C)[C@]1(OC(C)=O)CO[C@@H]1C[C@@H]2O` [Paclitaxel], with 0.994 ± 0.028; and `NC(=O)c1cccc(-c2cccc(OC(=O)NC3CCCCC3)c2)c1`, with 1.15 ± 0.11.

Take `NC(=O)c1cnccn1` [Pyrazinamide]: the relative cell viability was found to be 0.981 ± 0.086. With `COc1cc2nc(N3CCCC3)nc(NCCCCCN3CCCC3)c2cc1OC` the figure was 1.07 ± 0.058; with `Nc1nc(N)c(N=O)c(OCC2CCCCC2)n1`, 0.991 ± 0.11; with `C#Cc1cccc(Nc2ncnc3cc(OCCOC)c(OCCO)cc23)c1`, 1.02 ± 0.013. With `Cn1cnc2c(F)c(Nc3ccc(Br)cc3F)c(C(=O)NOCCO)cc21` the figure was 1.037 ± 0.0069; with `CCCCCCCCCCCCCCCCn1cc[n+](Cc2ccccc2)c1C`, 0.659 ± 0.018; with `Cc1cnc(-c2ccccc2C(C)C)nc1NCc1ccc(-n2ccnn2)cc1`, 1.29 ± 0.097. `Nc1ccc(-c2ccc3ncc4ccc(=O)n(-c5cccc(C(F)(F)F)c5)c4c3c2)cn1` [Torin 2]: the relative cell viability came to 0.569 ± 0.16. As to `CSc1nc2cc(Cl)c(Oc3cccc(Cl)c3Cl)cc2[nH]1` [Triclabendazole], the relative cell viability was 1.27 ± 0.16. With `Cc1cc2c(s1)Nc1ccccc1N=C2N1CCN(C)CC1` [Olanzapine] the figure was 1.02 ± 0.046; with `CC(=NNC(=S)N1CCC1)c1ccccn1`, 1.04 ± 0.0018.

In the case of `CN1C(=O)C(Cc2c[nH]c3ccccc23)NC1=S` (stereo not drawn) [Necrostatin-1], the relative cell viability turned out to be 1.05 ± 0.077. Then `O=S(=O)(O)Oc1ccc(C(c2ccc(OS(=O)(=O)O)cc2)c2ccccn2)cc1` [Sodium Picosulfate], with 1.16 ± 0.017; and `CCn1c(-c2nonc2N)nc2c(C#CC(C)(C)O)ncc(OC[C@H]3CCCNC3)c21`, with 0.844 ± 0.085. Consider `OCCOc1ccc(/C(=C(/CCCl)c2ccccc2)c2ccccc2)cc1` [Ospemifene], for which the relative cell viability was 1.08 ± 0.085. Then `CC(C)OC(=O)C(C)(C)Oc1ccc(C(=O)c2ccc(Cl)cc2)cc1` [Fenofibrate], with 1.01 ± 0.024.

With `Cn1cc(/C=C2\C(=O)Nc3cccnc32)c2ccccc21`, the relative cell viability is 1.22 ± 0.058.

`Cc1ccc(NC(=O)C2(c3ccc4c(c3)OC(F)(F)O4)CC2)nc1-c1cccc(C(=O)O)c1` [VX-809 (Lumacaftor)]: the relative cell viability was 0.959 ± 0.096. With `CC(C)(C)c1ccc(S(=O)(=O)/C=C/C#N)cc1` the figure was 0.107 ± 0.0014; with `CNC(=O)c1cc(Oc2ccc3nc(N[C@@H]4CCCC[C@H]4O)sc3c2)ccn1`, 0.909 ± 0.12; with `CC(=O)c1c(C)c2cnc(Nc3ccc(N4CCNCC4)cn3)nc2n(C2CCCC2)c1=O`, 1.33 ± 0.026. With `CCCNC(=O)Nc1ccc(Oc2ncnc3cc(OC)c(OC)cc23)cc1Cl` the figure was 1.06 ± 0.1; with `C[C@@H](O[C@H]1OCCN(Cc2n[nH]c(=O)[nH]2)[C@H]1c1ccc(F)cc1)c1cc(C(F)(F)F)cc(C(F)(F)F)c1` [Aprepitant], 1.08 ± 0.14.
